Consider 25 molecules from article PMC4336329 (PLoS ONE, 2015).

The whole screen tested about 310,000 compounds, of which about 2,200 (0.71%) showed an effect of 50% or more. Effects have a minus sign here. The list shows a part of the results.

In this assay the target is human ether-à-go-go-related gene (hERG) potassium channel (human, UniProt Q12809). The experiment in a line: primary screen, population patch clamp on CHO cells stably expressing hERG.
Sequence of human ether-à-go-go-related gene (hERG) potassium channel (Q12809 whole entry, looked up): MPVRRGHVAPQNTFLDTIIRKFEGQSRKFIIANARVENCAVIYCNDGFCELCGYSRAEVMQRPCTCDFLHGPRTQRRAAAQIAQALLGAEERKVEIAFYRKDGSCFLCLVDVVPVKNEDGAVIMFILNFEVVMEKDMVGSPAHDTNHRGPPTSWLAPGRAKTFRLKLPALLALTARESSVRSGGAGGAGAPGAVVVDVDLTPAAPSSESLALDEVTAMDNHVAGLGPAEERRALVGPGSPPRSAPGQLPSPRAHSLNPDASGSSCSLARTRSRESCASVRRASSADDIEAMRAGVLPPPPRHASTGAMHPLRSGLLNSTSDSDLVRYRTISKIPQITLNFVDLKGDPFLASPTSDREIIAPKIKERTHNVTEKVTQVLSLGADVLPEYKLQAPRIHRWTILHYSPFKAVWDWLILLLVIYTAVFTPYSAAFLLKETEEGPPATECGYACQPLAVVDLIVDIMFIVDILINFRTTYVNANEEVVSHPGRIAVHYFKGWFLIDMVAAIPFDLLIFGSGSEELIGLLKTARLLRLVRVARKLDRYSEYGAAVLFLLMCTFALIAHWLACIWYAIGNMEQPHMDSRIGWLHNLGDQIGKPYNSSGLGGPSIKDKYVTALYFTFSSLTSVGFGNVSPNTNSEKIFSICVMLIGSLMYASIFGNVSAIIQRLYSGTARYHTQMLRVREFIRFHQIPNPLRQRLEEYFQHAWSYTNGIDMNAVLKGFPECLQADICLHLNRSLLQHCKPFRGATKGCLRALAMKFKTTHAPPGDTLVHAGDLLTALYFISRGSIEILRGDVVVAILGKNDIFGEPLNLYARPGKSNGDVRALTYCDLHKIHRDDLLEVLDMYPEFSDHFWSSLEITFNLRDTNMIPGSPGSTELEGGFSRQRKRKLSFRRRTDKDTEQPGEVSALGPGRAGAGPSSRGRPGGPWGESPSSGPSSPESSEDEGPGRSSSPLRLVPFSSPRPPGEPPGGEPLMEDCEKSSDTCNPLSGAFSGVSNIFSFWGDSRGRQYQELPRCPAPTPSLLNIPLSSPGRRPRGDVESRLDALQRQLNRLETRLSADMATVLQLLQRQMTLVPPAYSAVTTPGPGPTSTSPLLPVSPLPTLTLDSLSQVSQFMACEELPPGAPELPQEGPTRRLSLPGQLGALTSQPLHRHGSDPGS
Turning to `C=CCn1c(=O)c2c(nc(Br)n2Cc2ccccc2Cl)n(C)c1=O`, the “hERG current change (%, negative = inhibition) at 1uM” value is reported as 7.98%.
For `CCCC(=O)NNC(=O)CC(=O)Nc1ccccc1C(=O)O`, the “hERG current change (%, negative = inhibition) at 1uM” value is on record as 11.7%.
To `Cn1c(SCC(=O)Nc2cccc(F)c2)nc2c([nH]c3ccccc32)c1=O` belongs 12.8%; to `c1ccc(-c2nnc3sc(CN4CCC5(CC4)OCCO5)cn23)cc1`, 2.89%; to `COc1ccc(C2NC(=O)CCC2[N+](=O)[O-])c(OC)c1OC` (stereo not shown), 17.5%.
To `C=CCNc1oc(-c2ccco2)nc1S(=O)(=O)c1ccccc1` belongs -2.71%; to `Cc1ccc(NC(=O)c2sc(N)nc2-c2ccc([N+](=O)[O-])cc2)c(C)c1`, -0.358%; to `O=C(CNCc1ccc(Cl)cc1)N1CCc2ccccc2C1`, 1.89%.
For `CC(NC(=O)C(C)N1CCN(Cc2ccccc2)CC1)c1ccc(F)cc1` (stereo not shown), the “hERG current change (%, negative = inhibition) at 1uM” value came to 12.5%.
As for `O=C(NCc1cccnc1)c1ccccc1NS(=O)(=O)c1ccccc1`, the figure is 14.9%; as for `O=C1NC(c2ccccc2)C(C(=O)c2cccs2)=C1O` (stereo not shown), 16.4%; as for `COc1ccccc1Nc1c2c(nc3ccccc13)CCC2`, -7.26%.
Take `Cc1ccc(OC(=O)c2cccc(C(=O)Oc3ccc(C)cc3)n2)cc1`: the “hERG current change (%, negative = inhibition) at 1uM” value worked out at 12.1%.
As for `COc1ccc(S(=O)(=O)N2CCCC2)cc1Br`, the figure is 13.3%; as for `CCOC(=O)c1cn(CC(=O)Nc2ccc(OC)cc2OC)nn1`, 6.75%; as for `CC(=O)Nc1c(O)nc(SCc2ccccc2C#N)[nH]c1=O`, 4.46%.
To `N#C/C(=C\C=C\c1ccccc1)c1nc(-c2ccc(Cl)cc2)cs1` belongs 12.8%; to `O=C(O)c1cc(-c2ccc3c(c2)OCO3)nc2ccc(Br)cc12`, 11.8%.
On to `COc1cc(S(=O)(=O)N2CCCC3(CCCCC3)C2)ccc1-n1cnnn1`, for which the “hERG current change (%, negative = inhibition) at 1uM” value was found to be 9.29%.
To `CN(C)S(=O)(=O)c1ccc(NC(=O)Cn2c(-c3ccccc3)noc2=O)cc1` belongs 8.71%; to `S=c1[nH]c(-c2cccs2)cn1-c1ccccc1`, 20.8%; to `CC(C)(C)c1ccccc1NC(=O)N1CCNC(=O)C1CC(=O)Nc1ccc(F)cc1` (stereo not shown), 18.5%.
As for `COc1ccc2oc(=O)c(C(=O)N3CCN(c4ccccc4)CC3)cc2c1`, the figure is 2.83%; as for `Cl.O=C(CN1CCCCCC1)Nc1cccc(Br)c1`, -11.8%.
To `CNC(=O)CN(C1CCCCC1)S(=O)(=O)c1ccc(F)cc1` belongs 11.7%.
